Measurements as given in paper PMC4336329 (PLoS ONE, 2015).
In all, about 310,000 compounds went through this assay and about 14,000 (4.5%) showed an effect of 50% or more. The effect is printed as a negative number. The list shows a part of the results.

What follows are compounds tested against human ether-à-go-go-related gene (hERG) potassium channel (human, UniProt Q12809) (assay: primary screen, population patch clamp on CHO cells stably expressing hERG).
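Further: peak tail current of the secondary pulse compared with the same well before compound.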

human ether-à-go-go-related gene (hERG) potassium channel, sequence (Q12809 whole entry, looked up): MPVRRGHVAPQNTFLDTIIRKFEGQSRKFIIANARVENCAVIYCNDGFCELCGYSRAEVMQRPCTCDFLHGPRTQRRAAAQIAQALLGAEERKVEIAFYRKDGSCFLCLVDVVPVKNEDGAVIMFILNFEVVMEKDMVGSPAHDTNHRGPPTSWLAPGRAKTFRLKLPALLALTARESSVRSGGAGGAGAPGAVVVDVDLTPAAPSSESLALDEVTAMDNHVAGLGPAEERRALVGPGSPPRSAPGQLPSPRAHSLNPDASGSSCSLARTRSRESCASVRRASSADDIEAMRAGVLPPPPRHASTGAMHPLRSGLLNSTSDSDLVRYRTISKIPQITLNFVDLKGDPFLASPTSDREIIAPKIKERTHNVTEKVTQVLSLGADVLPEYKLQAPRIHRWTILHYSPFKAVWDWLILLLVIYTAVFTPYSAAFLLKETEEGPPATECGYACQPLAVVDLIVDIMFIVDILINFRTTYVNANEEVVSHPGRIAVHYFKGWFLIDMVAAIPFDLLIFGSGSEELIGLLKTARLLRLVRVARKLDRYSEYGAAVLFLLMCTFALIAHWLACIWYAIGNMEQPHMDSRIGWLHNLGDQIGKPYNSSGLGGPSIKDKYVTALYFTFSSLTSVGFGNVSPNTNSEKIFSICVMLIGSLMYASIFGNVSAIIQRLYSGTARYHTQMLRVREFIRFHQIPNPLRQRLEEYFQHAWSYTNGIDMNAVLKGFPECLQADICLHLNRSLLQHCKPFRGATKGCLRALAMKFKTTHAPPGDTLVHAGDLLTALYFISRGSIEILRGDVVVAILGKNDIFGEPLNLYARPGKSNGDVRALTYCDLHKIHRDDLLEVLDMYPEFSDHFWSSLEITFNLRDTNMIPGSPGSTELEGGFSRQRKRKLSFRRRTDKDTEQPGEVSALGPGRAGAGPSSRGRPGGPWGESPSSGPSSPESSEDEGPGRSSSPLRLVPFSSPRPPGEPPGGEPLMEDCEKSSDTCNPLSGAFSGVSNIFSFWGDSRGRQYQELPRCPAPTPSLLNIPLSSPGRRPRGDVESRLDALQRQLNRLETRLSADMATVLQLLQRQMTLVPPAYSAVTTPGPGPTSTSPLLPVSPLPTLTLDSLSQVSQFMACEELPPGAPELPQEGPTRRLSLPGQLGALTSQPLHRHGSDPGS

| SMILES | hERG current change (%, negative = inhibition) at 10uM |
| --- | --- |
| CCN(C(=O)Cc1ccc(NC2=NC3CS(=O)(=O)CC3S2)cc1)c1ccccc1 (stereo not shown) | -2.27% |
| COc1ccc(NC(=O)c2ccccc2-c2ccccc2)c(C)c1 | -1.79% |
| N/C(=N\OS(=O)(=O)c1cccc([N+](=O)[O-])c1)c1ccncc1 | 3.59% |
| Fc1ccccc1CN1CCCCCCC1 | -25.9% |
| O=C(c1ccc(Br)o1)N1CCc2ccccc21 | 0.669% |
| CCC(=Nc1ccccc1)C1=C(O)CCCC1=O | 17.7% |
| COC(=O)c1cc(Br)ccc1-c1ccc(/C=N/n2nnnc2N)o1 | -12.7% |
| CCOc1ccc(OCC)c(NC(=O)CN2CCN(c3ccc(C)cc3C)CC2)c1.Cl | -0.937% |
| O=C(NCC(c1ccco1)N1CCOCC1)c1cccc(Cl)c1 (stereo not shown) | 0.786% |
| CCCc1cc(=O)oc2cc(O[C@@H]3O[C@H](CO)[C@@H](O)[C@H](O)[C@H]3O)ccc12 | 25.9% |
| O=C1c2ccccc2C(=O)N1C(CO)C(O)c1ccc([N+](=O)[O-])cc1 (stereo not shown) | -5.29% |
| CN(CC(=O)Nc1ccc(F)cc1)CC(=O)Nc1ccc(Cl)c(S(=O)(=O)N2CCOCC2)c1 | -49.1% |
| O=C(CCC(=O)N(CC(=O)NC1CCCC1)Cc1ccccc1Cl)Nc1nccs1 | -16.1% |
| CC(C)(C)C(=O)NN=C1CCC(c2ccccc2)CC1 (stereo not shown) | 6.84% |
| Cc1ccc(NC(=O)CN(c2ccc3c(c2)OCO3)S(=O)(=O)c2c(C)n[nH]c2C)cc1 | 3.65% |
| C/C(=N\NC(=S)Nc1c(C)cccc1C)c1ccc(OC(F)F)cc1 | 7.46% |
| Cc1ccc(-n2nc(C)c3c2OC(N)=C(C#N)C3c2ccncc2)cc1 (stereo not shown) | 7.07% |
| Oc1ccc(Br)cc1/C=N/N1CCN(Cc2cccc3ccccc23)CC1 | -0.519% |
| CCSCc1nnc(SCC(=O)Nc2cccc(C(C)=O)c2)n1C | 11.9% |
| CCCn1c(NC(=O)CCNC(=O)c2ccccc2Cl)nc2ccccc21 | -23.4% |
| COC(=O)C1C(O)=C(C(C)=N)C(=O)CC1(C)C (stereo not shown) | 22.9% |
| COCC(=O)N/N=C\c1ccccc1OC/C=C/c1ccccc1 | 4.57% |
| O=C(Nc1ccc2c(c1)OCO2)c1ccc(CN2CCOCC2)cc1 | 10.1% |

| SMILES | hERG current change (%, negative = inhibition) at 10uM |
| --- | --- |
| Cc1ccc([N+](=O)[O-])c(OCCCN2CCCCCC2)c1.O=C(O)C(=O)O | -58.6% |
| COc1cccc(/C=N/NC(=O)CCn2cnc3ccccc32)c1 | -0.349% |
| O=C(CCSc1ccc(Cl)cc1)N1CCN(c2ccc(O)cc2)CC1 | -23.8% |
| CNCc1ccccc1Sc1cccc2ccccc12.O=C(O)/C=C\C(=O)O | -45.4% |
| Cl.O=S(=O)(NCCN1CCOCC1)c1cccs1 | -4.07% |
| Cc1ccc(S(=O)(=O)Nc2nc3ccc(S(=O)(=O)N4CCCC4)cc3s2)cc1 | 14.6% |
| CCOC(=O)c1cc(CC)sc1N1C(=O)CC(Sc2ccccc2C(=O)O)C1=O (stereo not shown) | 11% |
| COc1ccccc1C(O)Cc1nc2ccccc2n1C (stereo not shown) | -1.56% |
| CCOc1ccccc1Nc1cc(C)c2cccc(C)c2n1 | 23.1% |
| CCCCn1c(=O)[nH]c(=O)c2c1nc(-c1ccccc1F)n2Cc1ccccc1OC | 11.5% |
| CS(=O)(=O)N1CCN(C(=O)c2csc3ccccc23)CC1 | 2.35% |
| Cc1cccc(C)c1OCC(=O)NCC1CCCO1 (stereo not shown) | 0.411% |
| COc1ccccc1NC(=O)c1ccc(C)c(S(=O)(=O)N2CCCCC2)c1 | -8.22% |
| COc1ccc(N/C(C)=C/C(=S)Nc2ccccc2)cc1 | -8.63% |
| O=C(NC1CCCC1)C1CCC(=O)N1CCc1ccccc1 (stereo not shown) | 10.5% |
| O=C(Nc1ccccc1F)c1ccccc1-c1ccc(C(F)(F)F)cc1 | -5.12% |
| CCn1c(CCNC(=O)c2cccs2)nnc1SCC(=O)Nc1nc(-c2ccccc2)cs1 | -52% |
| Nc1nc(N2CCN(c3ccc(F)cc3)CC2)n[nH]1 | 13.1% |
| OCCC1CN(Cc2cccc3nccnc23)CCN1C1CCCC1 (stereo not shown) | -4.4% |
| CO[C@@]1(NC(=O)CSCC#N)C(=O)N2C(C(=O)[O-])=C(CSc3nnnn3C)CS[C@@H]21.[Na+] | 4.09% |
| CCOc1ccc(N2C(=O)CC(N(CCc3ccc(OC)c(OC)c3)C(=O)/C=C/C(=O)O)C2=O)cc1 (stereo not shown) | 11% |
| COc1ccc(N2CC(NC(=O)N(C)CCC#N)CC2=O)cc1 (stereo not shown) | 8.4% |
| CC(Nc1cc(N2CCN(S(C)(=O)=O)CC2)ccc1[N+](=O)[O-])c1ccccc1 (stereo not shown) | -3.89% |

| SMILES | hERG current change (%, negative = inhibition) at 10uM |
| --- | --- |
| CCOc1ccc(C(O)(c2ccccc2)C(CN2CCCC2)c2ccccc2)cc1.Cl (stereo not shown) | -34% |
| COc1ccc(OC)c(NC(=O)NCCCCc2ccccc2)c1 | 4.33% |
| CCCCn1c(S(=O)(=O)O)nc2ccccc21 | 9.47% |
| Cc1ccc(CN/C=C/C(=O)c2ccc(Br)cc2)cc1 | -8.5% |
| C=CCNc1nnc(-c2ccncc2)s1 | -21.7% |
| c1ccc2c(c1)nc(-c1ccncc1)n1nnnc21 | -18.9% |
| CCOc1ccc(-c2nnc(-c3ccco3)o2)cc1 | -3.92% |
| O=C1CC(Nc2ccc3ccccc3c2)C(=O)N1Cc1ccccc1 (stereo not shown) | 16.9% |
| CCCC1O[C@@H]2C[C@H]3[C@@H]4CCC5=CC(=O)C=C[C@]5(C)[C@H]4[C@@H](O)C[C@]3(C)[C@]2(C(=O)CO)O1 (stereo partly shown) | -25.4% |
| CCc1ccc(CNc2ccc(O)cc2)cc1 | 6.04% |
| O=C(CSCCO)Nc1cccc(C(F)(F)F)c1 | -10% |
| COc1ccc(CNC(=O)CN(C(=O)CCC(=O)Nc2ccccn2)c2cc(C)ccc2C)cc1 | -20.2% |
| CCCCOc1ccc(C2C3CN(C(=O)OCC)CC=C3C(C#N)=C(N)C2(C#N)C#N)cc1OC (stereo not shown) | 9.48% |
| COc1ccc(CCN2CC(C(=O)NCc3cnn(C(C)C)c3)CCC2=O)cc1 (stereo not shown) | 17% |
| O=C(CSc1nn(-c2ccccc2)c(=S)s1)Nc1ncccn1 | 13.4% |
| CCc1ccccc1OCC(=O)Nc1ccc2c(c1)OCCO2 | -7.92% |
| CN1CCN(NC(=O)C23CC4CC(CC(C4)C2)C3)CC1.Cl | -19.8% |
| CC(C)CCn1c(=O)c2ccccc2n2c(=S)[nH]nc12 | 18.2% |
| COc1ccc(S(=O)(=O)N2CCN(Cc3ccc4c(c3)OCO4)CC2)cc1F | -30.5% |
| COc1cc(NC(=O)COC(=O)CSc2ccc3ccccc3c2)c(C)cc1[N+](=O)[O-] | -8.94% |
| CCc1nccn1-c1cc(C(C)(C)C)nc2c(-c3ccc(Cl)cc3)cnn12 | 20.9% |
| Cc1ccc(C)c(NC(=O)C2CC3CCC2C3)c1 (stereo not shown) | 12.6% |
| Cc1ccccc1Nc1nc(-c2sc(NC(=O)c3cccc(Cl)c3)nc2C)cs1 | 29.8% |

| SMILES | hERG current change (%, negative = inhibition) at 10uM |
| --- | --- |
| c1ccc(-c2cnc(-c3ccccc3)nn2)cc1 | 11.7% |
| O=C(NCCc1ccc(Cl)cc1)C1CCN(c2cnccn2)CC1 | -35.3% |
| O=C(Nc1cccc(Cl)c1)OCc1cncs1 | -2.42% |
| CC1(CC(=O)O)SC(=O)NC1=O (stereo not shown) | -3.67% |
| CC(OC(=O)c1nc(Cl)ccc1Cl)C(=O)Nc1ccccc1F (stereo not shown) | 19.6% |
| Cc1ccc2cccc(OCC(=O)N3CCc4ccccc43)c2n1 | 7.12% |
| Cc1ccc(S(=O)(=O)CC(=O)c2ccc(C(C)(C)C)cc2)cc1 | 4.03% |
| OCC(O)/C=N/Nc1nc2ccccc2s1 (stereo not shown) | 14% |
| COCCN1C(=O)C(O)=C(C(C)=O)C1c1ccc(F)cc1 (stereo not shown) | 0.257% |
| COc1ccc(OC)c(NC(=S)NCc2cccnc2)c1 | 8.59% |
| CC(C)N(N=Nc1ccc([N+](=O)[O-])cc1)C(C)C | 8.18% |
| COc1ccccc1OCC(=O)NCc1n[nH]c(=O)c2ccccc12 | 2.92% |
| COc1cccc(C(=O)NC(=O)Nc2cc(C)[nH]n2)c1 | 17.2% |
| O=C(CCCN1C(=O)/C(=C/c2ccccc2Cl)SC1=S)N1CCOCC1 | 6.21% |
| O=C(c1cnccn1)N(Cc1ccco1)C1(C(=O)NC2CCCCC2)CCCCC1 | -8.81% |
| COc1ccc(N(C(=O)c2ccco2)C(C(=O)NC2CCCC2)c2ccc(N(C)C)cc2)cc1 (stereo not shown) | 2.81% |
| COc1ccc(CN2CNc3nc4ccccc4n3C2)cc1 | 1.16% |
| CCN(CC)c1ccc(/C=N/Nc2nc(C)cc(=O)[nH]2)cc1 | -20.5% |
| CNS(=O)(=O)c1cc(NC(=O)c2cccc3cccnc23)ccc1C | 10.2% |
| CCN(Cc1cc(=O)oc2cc(C)ccc12)c1ccccc1 | 16.7% |
| O=C(NCCCn1ccnc1)C(=O)NCC1OCCCN1S(=O)(=O)c1ccc(Cl)cc1 (stereo not shown) | -0.0397% |
| COc1ccc(C(=O)Cn2c(Cl)nc3c2c(=O)n(C)c(=O)n3C)cc1 | -2.11% |
